Measurements: the supplement of paper PMC7826260
The other results are listed elsewhere or left out. The data describe in vitro nicking of single-stranded DNA by Rep domains (1 h at 37 °C, 3 µM enzyme); the outer parts of the 90-letter strands are left off. Uncut reads are compared with the no-enzyme pool on a log2 scale; the lower, the more was cut; hits are not called. Counts are relative to all reads; where an enzyme cuts many sequences, the uncut ones exceed 0.

Experiments:
Assay in all cases: uncleaved DNA left, log2 of reads against the no-enzyme library (log2 ratio); higher = less cleavage (more negative = more Rep cleavage of the k-mer); sequences stand for … in CTCGTCCG…ACCGGAGA
[1] = test system: T1, Rep nickase domain of Muscovy duck circovirus
T1 sequence (Rep 1-111, printed without the tag): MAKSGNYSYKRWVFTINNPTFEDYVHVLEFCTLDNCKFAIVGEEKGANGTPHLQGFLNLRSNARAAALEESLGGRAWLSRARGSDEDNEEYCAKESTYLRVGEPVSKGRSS
Procedure: (§1)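 A pool of 90-nt single-stranded DNAs with seven random bases just before the constant AC of the nick site (name = the seven bases) was cut by 3 µM recombinant His6-SUMO-tagged Rep nickase domain (300 nM DNA, 50 mM HEPES pH 8.0, 50 mM NaCl, 1 mM MnCl2, 1 h, 37 °C, three replicates). Uncut DNA was amplified and sequenced.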

[2] = test system: T2, Rep nickase domain of banana bunchy top virus
T2 sequence (Rep 1-94, printed without the tag): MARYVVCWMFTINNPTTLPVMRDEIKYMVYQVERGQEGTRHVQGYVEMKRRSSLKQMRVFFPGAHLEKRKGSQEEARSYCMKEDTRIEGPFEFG
Procedure: as §1

[3] = test system: T3, Rep nickase domain of cabbage leaf curl virus
T3 sequence (Rep 1-116, printed without the tag): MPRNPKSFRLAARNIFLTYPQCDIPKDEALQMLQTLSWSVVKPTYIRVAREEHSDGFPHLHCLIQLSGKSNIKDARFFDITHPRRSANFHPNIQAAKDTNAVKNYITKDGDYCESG
Procedure: as §1

[4] = test system: T4, Rep nickase domain of chickpea chlorotic dwarf virus
T4 sequence (Rep 1-124, printed without the tag): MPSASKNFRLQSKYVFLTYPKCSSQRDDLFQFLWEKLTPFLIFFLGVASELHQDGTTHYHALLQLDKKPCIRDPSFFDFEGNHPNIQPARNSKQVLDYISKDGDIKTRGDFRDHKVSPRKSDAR
Procedure: as §1

[5] = test system: T5, Rep nickase domain of faba bean necrotic yellows virus
T5 sequence (Rep 1-98, printed without the tag): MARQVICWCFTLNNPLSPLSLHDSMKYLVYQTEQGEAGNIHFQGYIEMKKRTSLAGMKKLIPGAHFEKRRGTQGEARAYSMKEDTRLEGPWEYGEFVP
Procedure: as §1

[6] = test system: T6, Rep nickase domain of maize striate mosaic virus
T6 sequence (Rep 1-117, printed without the tag): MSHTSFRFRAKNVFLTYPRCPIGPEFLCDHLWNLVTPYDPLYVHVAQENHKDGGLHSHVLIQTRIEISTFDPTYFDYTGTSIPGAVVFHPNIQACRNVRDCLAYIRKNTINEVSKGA
Procedure: as §1

[7] = test system: T7, Rep nickase domain of porcine circovirus 2
T7 sequence (Rep 2-116, printed without the tag): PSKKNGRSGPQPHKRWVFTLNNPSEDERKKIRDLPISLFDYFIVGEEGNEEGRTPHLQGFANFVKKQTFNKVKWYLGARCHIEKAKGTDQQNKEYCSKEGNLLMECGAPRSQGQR
Procedure: as §1

[8] = test system: T8, Rep nickase domain of tomato yellow leaf curl virus
T8 sequence (Rep 1-136, printed without the tag): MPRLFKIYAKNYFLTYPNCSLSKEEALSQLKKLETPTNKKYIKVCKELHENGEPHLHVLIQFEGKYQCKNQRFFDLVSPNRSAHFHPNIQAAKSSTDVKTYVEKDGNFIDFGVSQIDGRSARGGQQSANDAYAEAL
Procedure: as §1

[9] = test system: T9, Rep nickase domain of wheat dwarf virus
T9 sequence (Rep 1-137, printed without the tag): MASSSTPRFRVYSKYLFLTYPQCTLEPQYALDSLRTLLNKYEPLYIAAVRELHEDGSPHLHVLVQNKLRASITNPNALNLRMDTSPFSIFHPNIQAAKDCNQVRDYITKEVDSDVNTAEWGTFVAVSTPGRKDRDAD
Procedure: as §1

| Sequence | uncleaved DNA left (log2) [1] | uncleaved DNA left (log2) [2] | uncleaved DNA left (log2) [3] | uncleaved DNA left (log2) [4] | uncleaved DNA left (log2) [5] | uncleaved DNA left (log2) [6] | uncleaved DNA left (log2) [7] | uncleaved DNA left (log2) [8] | uncleaved DNA left (log2) [9] |
| --- | --- | --- | --- | --- | --- | --- | --- | --- | --- |
| CTCAAAT | 0.0593 | 0.152 | 0.145 | -0.485 | 0.00361 | -0.497 | -0.0912 | -0.175 | -0.000349 |
| CTCTTTG | 0.0852 | 0.0544 | -0.684 | -0.543 | 0.154 | -0.9 | 0.029 | 0.127 | -0.017 |
| ACTTCCC | -0.0613 | -0.0588 | -0.13 | -0.0829 | 0.086 | -0.491 | -0.136 | -0.0168 | -0.0655 |
| CCTGAGA | 0.0608 | 0.0803 | 0.235 | 0.239 | 0.00259 | -0.635 | 0.156 | 0.115 | -0.0044 |
| CATGGGA | 0.00357 | -0.199 | -0.213 | -0.117 | -0.186 | -0.806 | 0.0518 | -0.0872 | -0.218 |
| TTCCCCT | -0.0188 | -0.0179 | 0.102 | -1.83 | -0.000119 | -0.329 | -0.477 | -0.0538 | -0.0859 |
| ACACCCT | -0.204 | 0.0537 | -0.172 | -1.81 | 0.0302 | -0.176 | -0.175 | -0.14 | -0.0336 |
| GTCCAGT | 0.0973 | -0.0202 | 0.336 | 0.795 | -0.148 | 1.54 | 0.0879 | 0.0845 | 0.0949 |
| GAACACT | 0.0676 | 0.141 | 0.15 | -1.98 | 0.159 | 1.32 | 0.0638 | 0.124 | 0.106 |
| TCCTGCG | -0.025 | -0.158 | -0.471 | 1.06 | 0.0076 | 0.354 | -0.00724 | -0.189 | -0.144 |
| AGGTATT | -3.31 | -1.89 | -1.26 | -1.74 | -2.45 | 0.973 | -3.9 | 0.034 | -0.567 |
| CTCACTT | -0.131 | -0.244 | -0.112 | -2.39 | -0.274 | -0.666 | -0.521 | -0.158 | -0.0798 |
| GTCTAGC | 0.0452 | 0.0294 | 0.21 | 0.707 | 0.105 | 1.29 | 0.127 | -0.0784 | -0.0108 |
| CGAATGG | -0.0248 | -0.0203 | -0.112 | 0.462 | -0.0686 | 0.476 | 0.0578 | -0.0489 | 0.00665 |
| AACATCC | -0.0226 | -0.122 | -0.073 | -0.407 | 0.015 | -0.556 | 0.0256 | -0.0659 | -0.0298 |
| CACGTAA | -0.0518 | 0.162 | 0.0137 | -0.696 | 0.119 | -0.498 | 0.0673 | -0.0157 | 0.114 |
| CCATAGC | 0.179 | 0.0684 | -0.641 | -0.396 | 0.166 | -1.05 | 0.186 | 0.178 | -0.0785 |
| AGCAACC | -0.00814 | 0.0826 | 0.0717 | 0.0495 | -0.0529 | 0.3 | -2.42 | 0.0595 | 0.18 |
| TCAGAAA | 0.111 | 0.139 | 0.135 | 0.216 | 0.0764 | -0.306 | 0.0234 | 0.0598 | 0.0421 |
| ACCTGTT | -2.91 | -0.22 | -0.948 | -2.1 | -0.242 | -0.638 | -2.88 | -0.0419 | -0.589 |
| GCATACA | -0.0536 | 0.0271 | -0.11 | -1.09 | 0.0488 | -0.0505 | -0.128 | -0.121 | -0.0315 |
| ATACCCG | 0.052 | -0.0488 | -0.76 | -0.545 | 0.00696 | -1.1 | -0.36 | -0.0669 | -0.135 |
| ACAACCA | -0.0745 | 0.063 | -0.172 | -1.83 | 0.0276 | -0.708 | -0.321 | -0.0616 | 0.0613 |
| ACGGAAT | 0.006 | 0.00592 | 0.0381 | 0.5 | -0.114 | 0.616 | 0.111 | -0.0416 | -0.0228 |
| CCGGGTG | 0.0654 | 0.0483 | -0.0601 | 0.216 | -0.113 | 0.235 | 0.0591 | -0.102 | -0.0362 |
| AACAGAG | -0.0161 | -0.0274 | -0.75 | -0.476 | 0.0127 | -1.18 | 0.0842 | -0.00431 | -0.177 |
| TGAATAT | 0.0923 | 0.242 | 0.298 | -0.249 | 0.0466 | 0.0828 | -0.0849 | 0.167 | 0.178 |
| CATTGCG | -0.201 | -0.0338 | 0.594 | 1.45 | 0.107 | 2.02 | 0.205 | 0.16 | -0.0259 |
| AGATATG | 0.0869 | -0.014 | -0.166 | 0.0627 | 0.0579 | -0.251 | 0.04 | -0.106 | 0.0813 |
| TACCCCA | -0.156 | 0.0131 | -0.238 | -2.41 | -0.0183 | -0.451 | -1.4 | -0.0384 | -0.00752 |
